In the supplement of paper PMC11741623:
The other results are listed elsewhere or left out. Interaction screen of human proteins with wild-type SARS-CoV-2 proteins by split-DHFR complementation in yeast, 1 µg/mL methotrexate. Value = fitness of the pair (three or more lineages) minus that of the viral protein without a human partner, on a scale set by negative (0) and fused positive (1) controls, mean of up to three cultures; higher = more likely to interact. Active = false discovery rate below 0.05 (one-sided t-test) in at least one culture. Nearly all pairs are not hits, and differences among them are mostly noise (correlation between cultures about 0.3); most hits were seen in one culture only. Human sequences are the Swiss-Prot entries looked up by gene name; the clone may be another isoform. NSP2 values were corrected by the authors for a growth advantage. Listed are human proteins with a hit and a random twelfth of the others.

B1: POMC, P01189 (protein)
chain: MPRSCCSRSGALLLALLLQASMEVRGWCLESSQCQDLTTESNLLECIRACKPDLSAETPMFPGNGDEQPLTENPRKYVMGHFRWDRFGRRNSSSSGSSGAGQKREDVSAGEDCGPLPEGGPEPRSDGAKPGPREGKRSYSMEHFRWGKPVGKKRRPVKVYPNGAEDESAEAFPLEFKRELTGQRLREGDGPDGPADDGAGAQADLEHSLLVAAEKKDEGPYRMEHFRWGSPPKDKRYGGFMTSEKSQTPLVTLFKNAIIKNAYKKGE
B2: SF3B2, Q13435 (protein)
chain: MATEHPEPPKAELQLPPPPPPGHYGAWAAQELQAKLAEIGAPIQGNREELVERLQSYTRQTGIVLNRPVLRGEDGDKAAPPPMSAQLPGIPMPPPPLGLPPLQPPPPPPPPPPGLGLGFPMAHPPNLGPPPPLRVGEPVALSEEERLKLAQQQAALLMQQEERAKQQGDHSLKEHELLEQQKRAAVLLEQERQQEIAKMGTPVPRPPQDMGQIGVRTPLGPRVAAPVGPVGPTPTVLPMGAPVPRPRGPPPPPGDENREMDDPSVGPKIPQALEKILQLKESRQEEMNSQQEEEEMETDARSSLGQSASETEEDTVSVSKKEKNRKRRNRKKKKKPQRVRGVSSESSGDREKDSTRSRGSDSPAADVEIEYVTEEPEIYEPNFIFFKRIFEAFKLTDDVKKEKEKEPEKLDKLENSAAPKKKGFEEEHKDSDDDSSDDEQEKKPEAPKLSKKKLRRMNRFTVAELKQLVARPDVVEMHDVTAQDPKLLVHLKATRNSVPVPRHWCFKRKYLQGKRGIEKPPFELPDFIKRTGIQEMREALQEKEEQKTMKSKMREKVRPKMGKIDIDYQKLHDAFFKWQTKPKLTIHGDLYYEGKEFETRLKEKKPGDLSDELRISLGMPVGPNAHKVPPPWLIAMQRYGPPPSYPNLKIPGLNSPIPESCSFGYHAGGWGKPPVDETGKPLYGDVFGTNAAEFQTKTEEEEIDRTPWGELEPSDEESSEEEEEEESDEDKPDETGFITPADSGLITPGGFSSVPAGMETPELIELRKKKIEEAMDGSETPQLFTVLPEKRTATVGGAMMGSTHIYDMSTVMSRKGPAPELQGVEVALAPEELELDPMAMTQKYEEHVREQQAQVEKEDFSDMVAEHAAKQKQKKRKAQPQDSRGGSKKYKEFKF
B3: BBS7, Q8IWZ6 (protein)
chain: MDLILNRMDYLQVGVTSQKTMKLIPASRHRATQKVVIGDHDGVVMCFGMKKGEAAAVFKTLPGPKIARLELGGVINTPQEKIFIAAASEIRGFTKRGKQFLSFETNLTESIKAMHISGSDLFLSASYIYNHYCDCKDQHYYLSGDKINDVICLPVERLSRITPVLACQDRVLRVLQGSDVMYAVEVPGPPTVLALHNGNGGDSGEDLLFGTSDGKLALIQITTSKPVRKWEIQNEKKRGGILCIDSFDIVGDGVKDLLVGRDDGMVEVYSFDNANEPVLRFDQMLSESVTSIQGGCVGKDSYDEIVVSTYSGWVTGLTTEPIHKESGPGEELKINQEMQNKISSLRNELEHLQYKVLQERENYQQSSQSSKAKSAVPSFGINDKFTLNKDDASYSLILEVQTAIDNVLIQSDVPIDLLDVDKNSAVVSFSSCDSESNDNFLLATYRCQADTTRLELKIRSIEGQYGTLQAYVTPRIQPKTCQVRQYHIKPLSLHQRTHFIDHDRPMNTLTLTGQFSFAEVHSWVVFCLPEVPEKPPAGECVTFYFQNTFLDTQLESTYRKGEGVFKSDNISTISILKDVLSKEATKRKINLNISYEINEVSVKHTLKLIHPKLEYQLLLAKKVQLIDALKELQIHEGNTNFLIPEYHCILEEADHLQEEYKKQPAHLERLYGMITDLFIDKFKFKGTNVKTKVPLLLEILDSYDQNALISFFDAA
B4: MAGEF1, Q9HAY2 (protein)
chain: MLQTPESRGLPVPQAEGEKDGGHDGETRAPTASQERPKEELGAGREEGAAEPALTRKGARALAAKALARRRAYRRLNRTVAELVQFLLVKDKKKSPITRSEMVKYVIGDLKILFPDIIARAAEHLRYVFGFELKQFDRKHHTYILINKLKPLEEEEEEDLGGDGPRLGLLMMILGLIYMRGNSAREAQVWEMLRRLGVQPSKYHFLFGYPKRLIMEDFVQQRYLSYRRVPHTNPPEYEFSWGPRSNLEISKMEVLGFVAKLHKKEPQHWPVQYREALADEADRARAKARAEASMRARASARAGIHLW
B5: TOPBP1, Q92547 (protein)
chain: MSRNDKEPFFVKFLKSSDNSKCFFKALESIKEFQSEEYLQIITEEEALKIKENDRSLYICDPFSGVVFDHLKKLGCRIVGPQVVIFCMHHQRCVPRAEHPVYNMVMSDVTISCTSLEKEKREEVHKYVQMMGGRVYRDLNVSVTHLIAGEVGSKKYLVAANLKKPILLPSWIKTLWEKSQEKKITRYTDINMEDFKCPIFLGCIICVTGLCGLDRKEVQQLTVKHGGQYMGQLKMNECTHLIVQEPKGQKYECAKRWNVHCVTTQWFFDSIEKGFCQDESIYKTEPRPEAKTMPNSSTPTSQINTIDSRTLSDVSNISNINASCVSESICNSLNSKLEPTLENLENLDVSAFQAPEDLLDGCRIYLCGFSGRKLDKLRRLINSGGGVRFNQLNEDVTHVIVGDYDDELKQFWNKSAHRPHVVGAKWLLECFSKGYMLSEEPYIHANYQPVEIPVSHKPESKAALLKKKNSSFSKKDFAPSEKHEQADEDLLSQYENGSSTVVEAKTSEARPFNDSTHAEPLNDSTHISLQEENQSSVSHCVPDVSTITEEGLFSQKSFLVLGFSNENESNIANIIKENAGKIMSLLSRTVADYAVVPLLGCEVEATVGEVVTNTWLVTCIDYQTLFDPKSNPLFTPVPVMTGMTPLEDCVISFSQCAGAEKESLTFLANLLGASVQEYFVRKSNAKKGMFASTHLILKERGGSKYEAAKKWNLPAVTIAWLLETARTGKRADESHFLIENSTKEERSLETEITNGINLNSDTAEHPGTRLQTHRKTVVTPLDMNRFQSKAFRAVVSQHARQVAASPAVGQPLQKEPSLHLDTPSKFLSKDKLFKPSFDVKDALAALETPGRPSQQKRKPSTPLSEVIVKNLQLALANSSRNAVALSASPQLKEAQSEKEEAPKPLHKVVVCVSKKLSKKQSELNGIAASLGADYRWSFDETVTHFIYQGRPNDTNREYKSVKERGVHIVSEHWLLDCAQECKHLPESLYPHTYNPKMSLDISAVQDGRLCNSRLLSAVSSTKDDEPDPLILEENDVDNMATNNKESAPSNGSGKNDSKGVLTQTLEMRENFQKQLQEIMSATSIVKPQGQRTSLSRSGCNSASSTPDSTRSARSGRSRVLEALRQSRQTVPDVNTEPSQNEQIIWDDPTAREERARLASNLQWPSCPTQYSELQVDIQNLEDSPFQKPLHDSEIAKQAVCDPGNIRVTEAPKHPISEELETPIKDSHLIPTPQAPSIAFPLANPPVAPHPREKIITIEETHEELKKQYIFQLSSLNPQERIDYCHLIEKLGGLVIEKQCFDPTCTHIVVGHPLRNEKYLASVAAGKWVLHRSYLEACRTAGHFVQEEDYEWGSSSILDVLTGINVQQRRLALAAMRWRKKIQQRQESGIVEGAFSGWKVILHVDQSREAGFKRLLQSGGAKVLPGHSVPLFKEATHLFSDLNKLKPDDSGVNIAEAAAQNVYCLRTEYIADYLMQESPPHVENYCLPEAISFIQNNKELGTGLSQKRKAPTEKNKIKRPRVH
B6: CACNG5, Q9UF02 (protein)
chain: MSACGRKALTLLSSVFAVCGLGLLGIAVSTDYWLYLEEGVIVPQNQSTEIKMSLHSGLWRVCFLAGEERGRCFTIEYVMPMNTQLTSESTVNVLKMIRSATPFPLVSLFFMFIGFILNNIGHIRPHRTILAFVSGIFFILSGLSLVVGLVLYISSINDEMLNRTKDAETYFNYKYGWSFAFAAISFLLTESAGVMSVYLFMKRYTAEDMYRPHPGFYRPRLSNCSDYSGQFLHPDAWVRGRSPSDISSEASLQMNSNYPALLKCPDYDQMSSSPC
B7: RGN, Q15493 (protein)
chain: MSSIKIECVLPENCRCGESPVWEEVSNSLLFVDIPAKKVCRWDSFTKQVQRVTMDAPVSSVALRQSGGYVATIGTKFCALNWKEQSAVVLATVDNDKKNNRFNDGKVDPAGRYFAGTMAEETAPAVLERHQGALYSLFPDHHVKKYFDQVDISNGLDWSLDHKIFYYIDSLSYSVDAFDYDLQTGQISNRRSVYKLEKEEQIPDGMCIDAEGKLWVACYNGGRVIRLDPVTGKRLQTVKLPVDKTTSCCFGGKNYSEMYVTCARDGMDPEGLLRQPEAGGIFKITGLGVKGIAPYSYAG
B8: FAM3B, P58499 (protein)
chain: MRPLAGGLLKVVFVVFASLCAWYSGYLLAELIPDAPLSSAAYSIRSIGERPVLKAPVPKRQKCDHWTPCPSDTYAYRLLSGGGRSKYAKICFEDNLLMGEQLGNVARGINIAIVNYVTGNVTATRCFDMYEGDNSGPMTKFIQSAAPKSLLFMVTYDDGSTRLNNDAKNAIEALGSKEIRNMKFRSSWVFIAAKGLELPSEIQREKINHSDAKNNRYSGWPAEIQIEGCIPKERS
B9: TMEM40, Q8WWA1 (protein)
chain: METSASSSQPQDNSQVHRETEDVDYGETDFHKQDGKAGLFSQEQYERNKSSSSSSSSSSSSSSSSSSSSSESNDEDQQPRATGKHRRSLGAGYPHGNGSPGPGHGEPDVLKDELQLYGDAPGEVVPSGESGLRRRGSDPASGEVEASQLRRLNIKKDDEFFHFVLLCFAIGALLVCYHYYADWFMSLGVGLLTFASLETVGIYFGLVYRIHSVLQGFIPLFQKFRLTGFRKTD
B10: OR5T1, Q8NG75 (protein)
chain: MSGLPSDMDLYKLQLNNFTEVTMFILISFTEEFDVQVFLFLLFLAIYLFTLIGNLGLVVPIIGDFWLHSPMYYFLGVLSFLDVCYSTVVTPKMLVNFLAKNKSISFLGCATQMFLACTFGTTECFLLAAMAYDRYVAIYNPLLYSVSMSPRVYVPLITASYVASILHATIHTVATFSLSFCGSNEIRHVFCNMPPLLAISCSDTHVIQLLFFYFVGSIEIVTILIVLISYGFILLAILKMQSAEGRRKVFSTCGAHLTGVTIYHGTILFMYVRPSSSYTSDNDMIVSIFYTIVIPMLNPIIYSLRNKDVKEAIKRLLVRNWFINKL
B11: IL31, Q6EBC2 (protein)
chain: MASHSGPSTSVLFLFCCLGGWLASHTLPVRLLRPSDDVQKIVEELQSLSKMLLKDVEEEKGVLVSQNYTLPCLSPDAQPPNNIHSPAIRAYLKTIRQLDNKSVIDEIIEHLDKLIFQDAPETNISVPTDTHECKRFILTISQQFSECMDLALKSLTSGAQQATT

What follows are binders tested against SARS-CoV-2 ORF6 (assay: yeast fitness gain over the viral ORF with no human partner (scaled fitness); higher = more likely to interact).
Protocol: (§1)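 Split mouse DHFR complementation in pooled diploid yeast: human ORFeome clones carry one fragment and viral ORFs the other; barcoded lineages compete in 1 µg/mL methotrexate and fitness is read by barcode sequencing in up to three cultures.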
In the case of B1, the yeast fitness gain is reported as inactive: 0.0039. In the case of B3, the yeast fitness gain is reported as inactive: -0.191. With B6 the yeast fitness gain was inactive: -0.0997. For B7, the yeast fitness gain was inactive: -0.0973. With B8 the yeast fitness gain was inactive: 0.0125. B9 was tested, and the yeast fitness gain was inactive: -0.108. With B10 the yeast fitness gain was inactive: -0.0609.

Each binder was assayed against SARS-CoV-2 ORF8 in the same assay as above.
Protocol: as §1
In the case of B1, the yeast fitness gain is reported as inactive: 0.0363. For B2, the yeast fitness gain was inactive: -0.17. B4 was tested, and the yeast fitness gain was inactive: -0.0436.

What follows are binders tested against SARS-CoV-2 ORF9B in the same assay as above.
Protocol: as §1
For B2, the yeast fitness gain was inactive: -0.167. In the case of B5, the yeast fitness gain is reported as inactive: 0.058. With B6 the yeast fitness gain was inactive: 0.0959. For B8, the yeast fitness gain was inactive: -0.0981.

Each binder was assayed against SARS-CoV-2 ORF3B in the same assay as above.
Protocol: as §1
With B3 the yeast fitness gain was inactive: -0.117. With B11 the yeast fitness gain was inactive: -0.0233.

What follows are binders tested against SARS-CoV-2 ORF7A in the same assay as above.
Protocol: as §1
B5 was tested, and the yeast fitness gain was inactive: 0.0159.

What follows are binders tested against SARS-CoV-2 ORF7B in the same assay as above.
Protocol: as §1
In the case of B10, the yeast fitness gain is reported as inactive: -0.102.
